Data published in paper PMC12040169 (PLOS Biology, 2025).
The list shows a part of the results.

The compounds below were run on T1, C. trachomatis L2/434/Bu expressing GFP (CTL2-GFP). Conditions: total inclusion area; 28.5 h, 10 µM; inhibitor.
T1 construct: L2/434/Bu GFP intracellular growth in HeLa cells
Set-up: species or system HeLa; C. trachomatis total inclusion area by high-content imaging, normalised to DMSO
How it was run: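 After bulk GFP and resorufin fluorescence reads, cells were fixed, stained with Hoechst and imaged by high-content microscopy. Inclusion area and number (GFP) stood in for chlamydial growth, nuclei count (Hoechst) for host cell viability. MICs were derived as for the bulk readout.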

SMILES	% of control remaining
Cc1cc(C)n(Cc2cc(C(=O)NCC(C)Oc3cccnc3)n[nH]2)n1 (stereo not drawn) [CBK307609]	64.7878
Cc1n[nH]c(C)c1CNC(=O)CCc1ccc(Cl)cc1 [CBK283185]	101.024
O=C(O)c1cccnc1SC1CC(=O)N(c2ccc([N+](=O)[O-])cc2)C1=O (stereo not drawn) [CBK263079]	94.8664
Fc1ccc(CNc2c(-c3ccco3)nc3cnccn23)cc1 [CBK283694]	127.003
O=C(O)[C@@H]1CCCN1C(=O)CCn1nnc2ccccc2c1=O [CBK286765]	87.9534
Cn1nnnc1SCC(=O)Nc1cc(F)ccc1F [CBK057872]	98.514
CCCC(=O)c1ccc(S(=O)(=O)N2CCN(Cc3c[nH]nc3-c3cccs3)CC2)cc1 [CBK063160]	85.0496
CCCCC(C(=O)O)N1C(=O)c2ccccc2C1=O (stereo not drawn) [CBK287153]	94.0534
CC(C)(C)c1nc(NS(=O)(=O)c2ccc(Cl)cc2)sc1Br [CBK014258]	91.7368
Cc1cc(NC(=O)c2ccc(N3C(=O)CCC3=O)cc2)nc2c1c(=O)oc1ccccc12 [CBK291205]	133.808
Cc1nc2c(cc(OCC(O)COc3ccc(C#N)cc3)c3ccsc32)s1 (stereo not drawn) [CBK296632]	89.4481
c1ccc2c(CCN3CCC(Oc4cncc(OCCN5CCOCC5)n4)C3)c[nH]c2c1 (stereo not drawn) [CBK084500]	78.2949
O=S(=O)(NCCn1cccc1)c1ccc2ccccc2c1 [CBK270211]	91.3597
COc1ccc(CC(=O)N2CCCCC2c2ccc(Cc3cccc(F)c3)nc2)cc1 (stereo not drawn) [CBK286493]	90.8791
CCn1cc(CN(CC(C)C)C(=O)c2ccccc2C#N)cn1 [CBK306729]	106.212
CC(C)(C)OC(=O)N(CCCN1CCN(c2ccc(F)cc2)CC1)c1ccccc1 [CBK016723]	42.6096
O=C1CSC2(C(=O)Nc3ccccc32)N1c1cccc(F)c1 (stereo not drawn) [CBK093488]	76.6656
O=C(N/N=C/c1cc(O)c(Br)cc1Br)c1ccncc1 [CBK262297]	99.1835
COc1ccc2[nH]c3c(c2c1)CCOC31CCN(C(=O)N[C@@H](C)c2ccccc2)CC1 [CBK047114]	105.752
CC(O)CNCc1ccc(OCC(=O)NC(C)(C)C)cc1 (stereo not drawn) [CBK270232C]	100.08
CN(C)c1ncc(-c2cccc(Cl)c2)c(C2CCCN2C(=O)CC2CCCC2)n1 (stereo not drawn) [CBK286253]	46.8338

SMILES	% of control remaining
COc1ccc(CC(=O)N2CCC(c3cc4ccccc4cn3)C2)cc1 (stereo not drawn) [CBK283421]	87.2029
CCCc1cc(=O)[nH]c(SCc2noc(-c3snnc3C)n2)n1 [CBK006474]	127.516
CCN1C(=O)c2ccccc2C(=O)[C@@]2(C)CN(CC(C)C)C[C@@H]12 [CBK283479]	78.8836
CCOC(=O)Cc1nnc(-c2ccc(Cl)cc2)[nH]1 [CBK021882]	98.4012
O=C(NCCc1ccncc1)c1cccs1 [CBK056969]	76.5584
Cc1cc(C(=O)N2CCN(Cc3ccc4c(c3)OCO4)CC2)nn1C [CBK074832]	101.565
O=C(Nc1cccnc1)N1CCN(c2ccc(F)cc2)CC1 [CBK156427]	91.0025
Cc1ccc2nc(-c3ccc(-c4ccc(C(C)C)cc4)o3)cc(C(=O)O)c2c1 [CBK300083]	43.5462
COc1ccccc1CN(C)S(=O)(=O)c1ccc(S(N)(=O)=O)cc1 [CBK306008]	90.7289
O=C1CCC(=O)N1CCOc1nccnc1N1CCN(Cc2ccc(Cl)c(Cl)c2)CC1 [CBK084287]	93.0852
Cc1nccn1Cc1ccccc1C(=O)NCCn1ccnc1 [CBK281580]	89.0883
O=C(O)c1csc(-c2ccc(Cl)cc2Cl)n1 [CBK067777]	102.338
Cc1cc2c(o1)c1cnn(CC(=O)N3CCCCC3)c(=O)c1n2C [CBK284217]	71.4048
CC(=O)N1CCCN(C(=O)c2ncoc2-c2ccc(F)cc2)CC1 [CBK282398]	95.5948
Cc1ccc(C(O)CN(C)Cc2c(C)nn(C)c2C)c(C)c1 (stereo not drawn) [CBK282939]	101.246
Cc1coc(C)c1C(=O)CC1(O)C(=O)N(CCc2ccccc2)c2ccccc21 (stereo not drawn) [CBK293975]	92.0532
CCc1ccc(/C=N/N2CCN(Cc3cccc4ccccc34)CC2)cc1 [CBK262986]	91.4293
Cc1cnc2c(Cl)c(C(=O)NCC(F)(F)F)nn2c1 [CBK307391]	45.894
OC1(Cn2ccc3ncccc32)CCN(Cc2ccccc2F)CC1 [CBK284752]	75.7231
Cc1cc(Cl)c(S(=O)(=O)Nc2ccc(Oc3ccccc3)cc2)cc1OCC(N)=O [CBK266583]	117.641
CCn1c(SCC(=O)Nc2ccc(OC)c(Cl)c2)nnc1-c1ccccc1O [CBK268021]	89.8395

SMILES	% of control remaining
COc1ccc2cc(/C=C(\C#N)c3nc(-c4cc5c(ccc6ccccc65)oc4=O)cs3)c(Cl)nc2c1 [CBK261636]	115.069
CC1(C)CC(=O)c2sc(NC(=O)Nc3ccccc3)nc2C1 [CBK287319]	93.801
N#CCNS(=O)(=O)c1ccc(OC(F)(F)F)cc1 [CBK044841]	83.8722
O=C(Nc1ccc(Cc2ccc(NC(=O)c3ccc(Br)cc3)c(O)c2)cc1O)c1ccc(Br)cc1 [CBK262086]	105.097
COc1ccc(C(=O)O)cc1S(=O)(=O)N1CCCCCC1 [CBK261742]	113.909
Cc1ccc(CN(CCCN(C)C)Cc2nccn2C)o1 [CBK282481]	100.127
O=C(CSc1ccccc1)Nc1cc(Cl)ccc1O [CBK265837]	130.416
COc1ccc(S(=O)(=O)NCCCn2ccnc2)cc1Cl [CBK269997]	97.9269
CCc1c(C)nc2ccccc2c1SCCC(=O)O [CBK116382C]	61.7319
CCCCOc1ccc(C=Cc2nc3sc(C(=O)O)c(C)c3c(=O)[nH]2)cc1 [CBK297524]	83.479
O=C(NCc1ccc(F)cc1)[C@H]1CN2CCC1C[C@@H]2Cn1cc(C2(O)CCCC2)nn1 (stereo partly drawn) [CBK289093]	70.4906
COC(=O)c1cc(O)ccc1N [CBK002250]	23.3429
CC(/C=C1\SC(=S)N(C(Cc2ccccc2)C(=O)O)C1=O)=C\c1ccccc1 (stereo not drawn) [CBK263524]	109.532
COc1ccc(OC)c(-c2ccc(NC(=O)c3ccc(Cl)cc3Cl)c(C(=O)O)c2)c1 [CBK000393D]	108.023
O=C(CC1CCCCC1)N1CCN(c2ncccn2)CC1 [CBK144529]	99.7216
CC(CC(=O)N1CCCC(c2cc3cccnc3[nH]2)C1)n1cccn1 (stereo not drawn) [CBK284996]	94.5766
COCC(=O)N[C@H]1C[C@H]2C(=O)Nc3ccc(Br)cc3C(=O)N2C1 [CBK289357]	92.6789
S=C(NCCCN1CCOCC1)Nc1cccc(Cl)c1 [CBK263255]	98.0441
O=C1Nc2ccc(-c3ccccc3F)cc2C(=O)N2CCN(C(=O)c3cccnc3)C[C@H]12 [CBK289591]	76.4169
Cc1cc(C)n(CCN2CCC(N(C)Cc3nnc(C)n3C)C2)n1 (stereo not drawn) [CBK304449]	32.7521
COc1cc(CN2CCC(C(=O)NC(c3ccc(Cl)cc3)c3ccsc3)CC2)cc(OC)c1 (stereo not drawn) [CBK147962]	88.5232

SMILES	% of control remaining
CN(C(=O)c1cc(-c2cccs2)[nH]n1)c1ccccc1 [CBK288115]	103.282
CC1CCc2c(C(=O)N3CCC4(C3)NC(=O)NC4=O)csc2C1 (stereo not drawn) [CBK304290]	95.6693
O=C(c1ccccc1)N1C[C@H](c2ccc(F)cc2)[C@H]2CN(CCc3ccccc3)CC[C@H]21 [CBK286291]	127.248
O=C(Nc1nc2c(s1)CCCCC2)C1CN(C(=O)Cc2ccc(F)cc2)C1 [CBK285904]	97.0159
COc1cc(CNc2nc(-c3cccc4ccccc34)cn3ccnc23)cc(OC)c1OC [CBK037397]	127.242
COc1ccc(NC(=O)c2cnc3sc(C)cn3c2=O)c(OC)c1 [CBK287712]	127.725
O=C(CCc1cccnc1)NC(Cc1ccsc1)c1nccs1 (stereo not drawn) [CBK284665]	127.937
CC12CN(Cc3ccccc3)CC1NC(=O)c1ccccc1C2N (stereo not drawn) [CBK282850]	77.3747
O=C(O)CC(NCc1ccco1)C(=O)Nc1cccc(F)c1 (stereo not drawn) [CBK286910]	52.2274
O=[N+]([O-])c1ccccc1OCCCn1cnc2ccccc21 [CBK267820G]	50.9125
CC(C)(C)OC(=O)N1CCCC(C(=O)NC(C(N)=O)c2ccccc2)C1 (stereo not drawn) [CBK305766]	24.3631
FC(F)(F)c1cccc(OCc2nnn[nH]2)c1 [CBK269466]	87.1299
O=C(O)c1cccc(NS(=O)(=O)CC(F)(F)F)c1 [CBK155712]	89.1305
COc1ccc(CN2CCN(c3ccccc3F)CC2)cc1OCc1ccccc1 [CBK261900]	98.9444
CCOc1cc(C)c(Cl)cc1S(=O)(=O)NCc1ccccn1 [CBK268047]	95.3853
COC(=O)N1CCN(c2ccccc2)CC1 [CBK200414]	92.9503
CN(C(=O)CN1C2CCC1CC(O)(c1ccco1)C2)C1CCCCC1 (stereo not drawn) [CBK284108]	82.313
COc1ccc(CCNC(=S)N2CCN(c3ccccn3)CC2)cc1OC [CBK266897]	112.52
